Experimental data as given in paper PMC4336329 (PLoS ONE, 2015).
The whole screen tested about 310,000 compounds, of which about 2,200 (0.71%) showed an effect of 50% or more. The effect is printed as a negative number. The list shows a part of the results.

The compounds below were run against human ether-à-go-go-related gene (hERG) potassium channel (human, UniProt Q12809) (assay: primary screen, population patch clamp on CHO cells stably expressing hERG).
Sequence of human ether-à-go-go-related gene (hERG) potassium channel (Q12809 whole entry, looked up): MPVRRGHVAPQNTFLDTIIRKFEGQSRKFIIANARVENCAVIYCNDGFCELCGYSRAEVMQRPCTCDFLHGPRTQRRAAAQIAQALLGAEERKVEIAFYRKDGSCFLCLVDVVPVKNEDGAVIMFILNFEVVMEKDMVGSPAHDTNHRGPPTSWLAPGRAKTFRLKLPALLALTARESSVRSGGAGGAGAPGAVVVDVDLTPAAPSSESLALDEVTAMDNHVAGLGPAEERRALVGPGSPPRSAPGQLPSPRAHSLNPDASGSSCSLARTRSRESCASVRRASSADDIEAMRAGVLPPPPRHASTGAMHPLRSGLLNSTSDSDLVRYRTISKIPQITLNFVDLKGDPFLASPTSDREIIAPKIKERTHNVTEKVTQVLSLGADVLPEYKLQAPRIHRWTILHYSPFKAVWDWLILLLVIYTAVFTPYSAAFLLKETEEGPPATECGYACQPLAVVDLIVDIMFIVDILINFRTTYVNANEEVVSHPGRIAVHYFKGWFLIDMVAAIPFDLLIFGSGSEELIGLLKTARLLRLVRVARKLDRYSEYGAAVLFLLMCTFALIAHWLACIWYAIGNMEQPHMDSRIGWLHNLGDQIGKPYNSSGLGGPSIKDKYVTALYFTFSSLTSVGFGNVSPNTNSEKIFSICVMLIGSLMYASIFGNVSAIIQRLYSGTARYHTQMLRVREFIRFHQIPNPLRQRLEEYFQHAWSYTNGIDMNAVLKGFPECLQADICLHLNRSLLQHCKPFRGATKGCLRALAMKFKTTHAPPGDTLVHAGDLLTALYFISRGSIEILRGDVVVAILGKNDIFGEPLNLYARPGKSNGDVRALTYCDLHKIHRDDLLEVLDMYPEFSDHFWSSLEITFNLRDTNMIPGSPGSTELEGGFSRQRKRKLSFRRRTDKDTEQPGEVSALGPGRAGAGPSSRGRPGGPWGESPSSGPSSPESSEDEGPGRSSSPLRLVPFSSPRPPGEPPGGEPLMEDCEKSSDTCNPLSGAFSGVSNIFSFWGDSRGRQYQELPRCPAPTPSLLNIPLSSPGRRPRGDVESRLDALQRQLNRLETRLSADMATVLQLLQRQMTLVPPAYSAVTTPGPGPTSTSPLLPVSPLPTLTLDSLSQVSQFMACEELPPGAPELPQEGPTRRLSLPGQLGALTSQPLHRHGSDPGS

| Compound | hERG current change (%, negative = inhibition) at 1uM [%] |
| --- | --- |
| CCOC(=O)C1C(=O)OC2(CCOC(C)(C)C2)C1C(=O)OCC (centres unmarked) | 4.85 |
| Cc1csc(Nc2ccc(C(=O)O)cc2)n1 | 12.6 |
| COc1ccc(CCN(C)C2CCCN(C(=O)Cn3cnnn3)C2)cc1OC (centres unmarked) | 10.7 |
| CCN(CC)CCCNC(=O)c1[nH]c(C)c(C(=O)NC2CCCCC2)c1C | 14.3 |
| Cc1csc(SCC(=O)Nc2cc([N+](=O)[O-])ccc2F)n1 | 11.9 |
| COc1ccccc1C(=O)Nn1c(-c2cccs2)nc2ccccc2c1=O | 4.7 |
| O=C(CN1CCN(Cc2ccccc2)CC1)Nc1ccccc1-c1ccccc1 | -39.6 |
| CC(=O)c1cnc(-c2ccccc2Cl)s1 | 13.5 |
| COc1cc2c(cc1NC(=O)CSc1nnc(COc3ccc(Cl)cc3)n1C)oc1ccccc12 | 14.3 |
| CCCCn1c(O)c(N=NC(=O)c2ccco2)c2ccccc21 | 8.21 |
| CC(=O)c1ccc(NC(=O)N2CCc3ccccc3C2)cc1 | 2.02 |
| CNC(=O)CSc1nnc(SCCC(=O)O)s1 | 11.1 |
| COc1ccc(C(=O)Nc2nncs2)cc1S(=O)(=O)N1CCOCC1 | 12.4 |
| O=C(NCCOc1ccccc1)C1CCC(=O)N(CCc2ccc(Cl)cc2)C1 (centres unmarked) | -45 |
| Cc1ccc(CN2CCN(CCCn3cccn3)CC2CCO)cc1 (centres unmarked) | -23.7 |
| COc1ccc(CCNC(=O)CC2Nc3cc(C)c(C)cc3NC2=O)cc1OC (centres unmarked) | 2.08 |
| CCOC(=O)c1sc(NC(=O)c2ccc(C)o2)nc1C | -0.302 |
| O=C(CCCc1ccccc1)NCCN1CCOCC1 | 5.14 |
| COc1ccccc1CNc1nc(S(=O)(=O)c2ccccc2)c(Cl)s1 | 9.35 |
| CN(CC(=O)Nc1ccc2c(c1)OCCO2)Cc1nc2ccccc2c(=O)[nH]1 | 11.2 |

| Compound | hERG current change (%, negative = inhibition) at 1uM [%] |
| --- | --- |
| CCCCNC(=O)C(=O)Nc1cc2c3c(c1)CCC(=O)N3CCC2 | 8.99 |
| Cc1ccc(/C=C(\NC(=O)c2ccccc2)C(=O)NCCc2ccccn2)o1 | 1.43 |
| O=C(NNS(=O)(=O)c1ccccc1)c1ccncc1 | 16.7 |
| Cl.O=C(O)c1ccc(CN2CCCCC2)o1 | 13.5 |
| CC(C)(C)N=Cc1cc(-c2ccccc2)sc1O | -10.3 |
| O=C(NCCO)C(=O)Nc1cc2c3c(c1)CC(=O)N3CCC2 | 20.3 |
| CCC(=O)Nc1ccc(C(=O)Cn2ncc(Cl)c(Cl)c2=O)cc1 | 12.5 |
| Cc1ccc(OCC(=O)N(C)CC(=O)N(CC(C)C)c2c(N)n(CC(C)C)c(=O)[nH]c2=O)c(C)c1 | 13.2 |
| CN(CC(=O)N1CCN(c2ccccc2)CC1)S(=O)(=O)c1cnc[nH]1 | 12.1 |
| O=C(O/N=C1/CCCc2occc21)c1ccccc1 | 9.06 |
| CCOC(=O)c1nn(-c2ccccc2)c(C#N)c1NC(=O)c1nn(CC)cc1Br | 16.1 |
| COc1ccc(CC(=O)NCC(=O)Nc2ccccc2Br)cc1 | 12.3 |
| Clc1ccc(NCc2cccnc2)cc1 | 2.53 |
| Cc1ccc(NC(=S)N(CCN(C)C)Cc2cc3cc(C)cc(C)c3[nH]c2=O)cc1 | 6.8 |
| CCC1(CC)C(=O)N(C)C(=O)NC1=NCc1ccccc1 | -1.22 |
| CCN(CC)CCNC(=O)c1ccc2c(c1NCCO)C(=O)c1ccccc1C2=O | 0.921 |
| O=C(O)CC(NC(=O)C12CC3CC(CC(C3)C1)C2)c1ccc(F)cc1 (centres unmarked) | 17.9 |
| CCC(C)n1[nH]c(=O)c2c(C)cc(C)nc21 (centres unmarked) | 13.9 |
| CC(=O)/C=C/c1ccc2ccccc2n1 | 1.13 |
| COc1cc(C(=O)NC(c2ccccc2)c2ccccc2)cc(OC)c1C | 15.2 |

| Compound | hERG current change (%, negative = inhibition) at 1uM [%] |
| --- | --- |
| N#Cc1ccc(C23CC4(C2)[C@H](CN(Cc2ccc(C(F)(F)F)cc2)[C@@H]4c2ccccc2)C3c2ccc(C(F)(F)F)cc2)cc1 (some centres unmarked) | 15.5 |
| COc1cccc(Oc2cn[nH]c2-c2ccc(O)cc2O)c1 | 1.1 |
| CS(=O)(=O)Nc1ccc(C2=NN(S(C)(=O)=O)C(c3ccccc3)C2)cc1 (centres unmarked) | -40.6 |
| CCC(=O)c1cn(CC(=O)O)c2ccccc12 | 9.33 |
| CCOC(=O)c1ccccc1NC(=O)C1=COCCO1 | 14.1 |
| Cc1ccccc1Cn1cnc2c(oc3ccccc32)c1=O | 11.4 |
| COc1ccc(N2C(=O)CS(=O)C(c3ccccc3)C2=O)cc1 (centres unmarked) | -24.3 |
| CCOC(=O)/C(C#N)=C/c1ccc(OCC(=O)Nc2ccc(C)c(C)c2)c(OC)c1 | 9.11 |
| CCOC(=O)C(/C(C)=N/NC(=O)c1ccccc1[N+](=O)[O-])C(C)C (centres unmarked) | 4.69 |
| CCN(CC)P(=O)(NC(=O)C(Cl)(Cl)Cl)N(CC)CC.[Cl-].[Cl-].[Cl-].[Nd+3] | -4.63 |
| CC(=O)N(C)c1ccc(NS(=O)(=O)c2cc(Cl)ccc2Cl)cc1 | 1.51 |
| CCNC(=O)CC1SC(=Nc2ccc(Cl)cc2)N(CC)C1=O (centres unmarked) | -0.56 |
| CCC(C)c1ccc(NC(=O)c2[nH]c(C)c(C(C)=O)c2C)cc1 (centres unmarked) | 12.2 |
| O=C(CSc1nnc(NC(=O)c2ccccc2Cl)s1)NC1CC1 | 13.5 |
| CCN1CCN(S(=O)(=O)c2ccc(Br)s2)CC1 | 8.57 |
| COc1ccc(NC(=O)CN(C)C(=O)CC2CCCC2)cc1 | 11.8 |
| O=C(NCc1ccco1)C1(c2ccc(Br)cc2)CCCC1 | 11.9 |
| COc1cc(C(CCN2CCCC(C)C2)c2c(OC)cc(OC)c3c2OC(=O)CC3c2ccc(N(C)C)cc2)cc(OC)c1OC (centres unmarked) | 8.8 |
| Cc1nnc(SCC(=O)NNC(=O)c2ccc(Cl)cc2)n1CC1CCCO1 (centres unmarked) | -1.84 |
